# Measurements reported in PubChem BioAssay (NCATS).
# “And” between values parts separate entries of the source, which are not always exact repeats. Identical values can stand only once. The inconclusive results got no clear call from the source; some entries with a clear call stand among them for comparison. For some assays here: A potency beside an inconclusive call is a rough fit, not a confirmed value. For some assays here: “Side channel” marks fits to a control or component signal instead of the main read-out. The source made the active and inactive calls. Unless noted, the call rests on the fitted dose curve.
# Assays:
# [1] = Cell Viability - Renal Proximal Tubule (AID 545; active means well fitted curve in the direction sought with a large enough effect; inconclusive means small, poorly fitted or top-dose-only effect, or another doubt; inactive means no such curve, though single readings can be large; an effect the other way counts as inactive or inconclusive;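 further: cells exposed to compound for 40 hours; 0% = DMSO only and -100% = 100 µM tamoxifen; nearly all actives have a fitted effect of over 40% in size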); conditions: renal proximal tubule cells viability; at 91.7 µM (top of the series), primary cells of rat origin unless noted
# Method in brief: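 Cytotoxicity is scored as a concentration-dependent drop in cellular ATP in primary rat renal proximal tubule cells exposed for 40 hr. AC50 derives from Hill modelling.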
# [2] = MultiTox-Fluor Cytotoxicity Assay - LYMP1-001 - Live Cells (AID 947; active means well fitted curve in the direction sought with a large enough effect; inconclusive means small, poorly fitted or top-dose-only effect, or another doubt; inactive means no such curve, though single readings can be large; an effect the other way counts as inactive or inconclusive; further: potency means the concentration at half of the fitted maximal effect)
# [3] = biological target: Glucocorticoid receptor (Homo sapiens) (UniProt P04150); assay: qHTS assay for small molecule antagonists of glucocorticoid receptor signaling (AID 588533; active means well fitted inhibition curve with a large enough effect in the signal ratio, with a control signal flat, not every such curve was filed as active; inconclusive means small, poorly fitted or top-dose-only effect, or effect the other way, or a change in a side signal; the % refers to the signal ratio;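 further: cells stimulated with 2 nM dexamethasone as agonist; on the % scale 0 is the no-effect control and ±100 the full control effect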); conditions: HeLa MMTV-bla, GRE beta-lactamase ratio, antagonist mode, 18 h; activity change, negative = inhibition: at 76.8 µM (top of the series) unless noted
# [4] = biological target: Vitamin D3 receptor (Homo sapiens) (UniProt P11473); assay: qHTS assay for small molecule antagonists of vitamin D receptor signaling (AID 588541); conditions: HEK293T VDR-UAS-bla, beta-lactamase ratio, antagonist mode; activity change, negative = inhibition: at 76.7 µM (top of the series);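 further: receptor activated by calcitriol during compound treatment; on the % scale 0 is the no-effect control and ±100 the full control effect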
# [5] = biological target: Thyroid hormone receptor beta (Homo sapiens) (UniProt P10828); assay: qHTS assay for small molecule antagonists of thyroid hormone receptor beta signaling (AID 588547; active means well fitted inhibition curve with a large enough effect in the signal ratio, with a control signal flat, not every such curve was filed as active; inconclusive means small, poorly fitted or top-dose-only effect, or effect the other way, or a change in a side signal; the % refers to the signal ratio;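 further: cells stimulated with 0.4 nM T3 agonist during compound exposure; on the % scale 0 is the no-effect control and ±100 the full control effect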); conditions: TR-UAS-bla HEK293, beta-lactamase ratio, antagonist mode, 18 h
# Method in brief: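 TR-UAS-bla GripTite HEK293 cells in 2% charcoal/dextran FBS medium were preincubated 4 h at 37 C, given compound (0.59 nM to 92 uM) plus 0.4 nM T3 (final) for 18 h, then CCF4 for 2 h at RT; Hill fit gave IC50.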
# [6] = qHTS assay for small molecule agonists of the antioxidant response element (ARE) signaling pathway (AID 651741; active means well fitted activation curve with a large enough effect in the signal ratio; inconclusive means small, poorly fitted or top-dose-only effect, or effect the other way, or a change in a side signal; the % refers to the signal ratio; further: potency means the concentration at half of the fitted maximal effect; on activation: % of control where 0% means no effect); conditions: HepG2 ARE-bla reporter, beta-lactamase FRET ratio, 16 h
# Method in brief: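 Compounds in DMSO are pinned onto HepG2 ARE-bla cells (2,000/well) that were preincubated 5 h; plates stay 16 h at 37 C, then beta-lactamase activity is detected with LiveBLAzer B/G substrate by fluorescence.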
# [7] = qHTS assay to identify small molecules that stimulate interleukin-8 (IL-8) secretion (AID 651758; active means well fitted activation curve with a large enough effect in the signal ratio; inconclusive means small, poorly fitted or top-dose-only effect, or effect the other way, or a change in a side signal; the % refers to the signal ratio; further: 0% is about no effect); conditions: HTRF ratio (665/615); activation: at 92.2 µM (top of the series)
# Method in brief: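 THP-1, 2000 cells/well; cpd 16 h, 37 C; add cryptate + XL665 anti-IL-8 Abs; RT 1-3 h; TR-FRET read.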
# [8] = biological target: Nuclear receptor ROR-gamma (Homo sapiens) (UniProt P51449); assay: qHTS assay for small molecule antagonists of the retinoid-related orphan receptor gamma (ROR-gamma) signaling pathway (AID 651802; active means well fitted curve in the direction sought with a large enough effect; inconclusive means small, poorly fitted or top-dose-only effect, or another doubt; inactive means no such curve, though single readings can be large; an effect the other way counts as inactive or inconclusive;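 further: luciferase reporter luminescence driven by ROR response element; on the % scale 0 is the no-effect control and ±100 the full control effect; nearly all actives have a fitted effect of over 60% in size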)
# Method in brief: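 CHO cells with TET-inducible ROR-gamma and RORE-luciferase reporter, dosed then doxycycline-induced. After 16 h at 37C, One-Glo luminescence read; decreased signal indicates antagonism.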
# [9] = biological target: Estrogen receptor (Homo sapiens) (UniProt P03372); assay: qHTS assay for small molecule antagonists of estrogen receptor alpha signaling (AID 588513; active means well fitted curve in the direction sought with a large enough effect in the signal ratio, with a control signal flat, not every such curve was filed as active; inconclusive means small, poorly fitted or top-dose-only effect, or effect the other way, or a change in a side signal; inactive means no such curve, though single readings can be large or run the other way; the % refers to the signal ratio; further: potency means the concentration at half of the fitted maximal effect); conditions: ER-alpha-UAS-bla HEK293, beta-lactamase ratio, antagonist mode
# Method in brief: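 Cells were plated at 5000/well and incubated 4 h at 37 C. Compounds were added as 1:2 dilution series, duplicates. 17-beta-estradiol (0.5nM final) was added for 18 h before CCF4 detection.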
# [10] = biological target: Estrogen receptor (Homo sapiens) (UniProt P03372); assay: qHTS assay for small molecule agonists of estrogen receptor alpha signaling (AID 588514); conditions: ER-alpha-UAS-bla HEK293, beta-lactamase ratio, 18 h; activation: at 76.8 µM (top of the series), percent of full estradiol response, vehicle zero; further: nearly all actives have a fitted effect of over 70% in size; further: potency means the concentration at half of the fitted maximal effect;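 on activation: 0% = vehicle only and 100% = reference agonist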
# Method in brief: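 ER-alpha-UAS-bla GripTite HEK293 cells, 5000/well in 2% charcoal/dextran-stripped FBS medium, treated with compound titrations 18 h at 37 C. CCF4 beta-lactamase read by fluorescence after 2 h RT; normalised to 20 nM 17-beta-estradiol (100%) and DMSO (0%), Hill fit for EC50 and efficacy.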
# [11] = biological target: Androgen receptor (Homo sapiens) (UniProt P10275); assay: qHTS assay for small molecule agonists of androgen receptor signaling (AID 588515; active means well fitted curve in the direction sought with a large enough effect in the signal ratio, with a control signal flat; inconclusive means small, poorly fitted or top-dose-only effect, or effect the other way, or a change in a side signal; inactive means no such curve, though single readings can be large or run the other way; the % refers to the signal ratio; further: on the % scale 0 is the no-effect control and ±100 the full control effect); conditions: AR-UAS-bla HEK293, beta-lactamase ratio, agonist 16 h; activation: active compounds read high
# Method in brief: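 EC50 and efficacy came from Hill fits of titrations (up to 92 uM) normalized to 30 nM R1881 as 100% and DMSO as 0%. Compound exposure was 16 h at 37 C on AR-UAS-bla HEK293 cells, with a 405/460/530 nm CCF4 fluorescence read.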
# [12] = biological target: Androgen receptor (Homo sapiens) (UniProt P10275); assay: qHTS assay for small molecule antagonists of androgen receptor signaling (AID 588516; active means well fitted curve in the direction sought with a large enough effect in the signal ratio, with a control signal flat, not every such curve was filed as active; inconclusive means small, poorly fitted or top-dose-only effect, or effect the other way, or a change in a side signal; inactive means no such curve, though single readings can be large or run the other way; the % refers to the signal ratio; further: on the % scale 0 is the no-effect control and ±100 the full control effect); conditions: AR-UAS-bla HEK293, beta-lactamase ratio, antagonist mode, 16 h; activity change, negative = inhibition: at 76.8 µM (top of the series)
# Method in brief: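 Antagonist-mode qHTS: inhibition of R1881 (10 nM)-driven beta-lactamase expression in GripTite HEK 293 cells is measured after 16 h; values are Hill-derived IC50s normalized between R1881 and DMSO wells.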
# [13] = biological target: Vitamin D3 receptor (Homo sapiens) (UniProt P11473); assay: qHTS assay for small molecule agonists of vitamin D receptor signaling (AID 588543); conditions: HEK293T VDR-UAS-bla, beta-lactamase ratio, 16 h; activation: at 76.8 µM (top of the series); further: potency means the concentration at half of the fitted maximal effect;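 on activation: 0% = DMSO basal and 100% = reference agonist control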
# Method in brief: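 qHTS in agonist mode: compound titrations stimulate a VDR-driven β-lactamase reporter in HEK293T cells over 16 h at 37 °C. Response normalized to 50 nM 1α,25-dihydroxyvitamin D3 = 100%, DMSO = 0%; Hill fitting gives EC50 and maximal response.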
# [14] = biological target: Retinoic acid receptor RXR-alpha (Homo sapiens) (UniProt P19793); assay: qHTS assay for small molecule antagonists of retinoid X receptor alpha signaling (AID 588546; active means well fitted inhibition curve with a large enough effect in the signal ratio, with a control signal flat, not every such curve was filed as active; inconclusive means small, poorly fitted or top-dose-only effect, or effect the other way, or a change in a side signal; inactive means no such curve, though single readings can be large or run the other way; the % refers to the signal ratio); conditions: HEK293T RXRa-UAS-bla, beta-lactamase ratio, antagonist mode
# Method in brief: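 Beta-lactamase reporter inhibition, read as CCF4 fluorescence ratio (ex 405, em 460/530 nm) after 2 h at RT. HEK293T UAS-bla cells, 2500/well, were stimulated with 9-cis-RA at 500 or 100 nM final alongside test compound for 18 h at 37 C.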
# [15] = biological target: Bile acid receptor (Homo sapiens) (UniProt Q96RI1); assay: qHTS assay for small molecule agonists of farnesoid X receptor signaling (AID 588527); conditions: HEK293T FXR-UAS-bla, beta-lactamase ratio, 16 h; activation: active compounds read high; further: potency means the concentration at half of the fitted maximal effect
# Method in brief: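 FXR-UAS-bla HEK293T cells (10% dialyzed FBS) preincubated 5-7 h at 37 C, then compounds at up to 92 uM for 16 h at 37 C. CCF4 beta-lactamase read-out after 2 h RT. Normalized to chenodeoxycholic acid (100 uM) and DMSO; Hill fit gave EC50 and efficacy.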
# [16] = biological target: Peroxisome proliferator-activated receptor gamma (Homo sapiens) (UniProt P37231); assay: qHTS assay for small molecule antagonists of peroxisome proliferator-activated receptor gamma signaling (AID 588537; active means well fitted inhibition curve with a large enough effect in the signal ratio, with a control signal flat, not every such curve was filed as active; inconclusive means small, poorly fitted or top-dose-only effect, or effect the other way, or a change in a side signal; the % refers to the signal ratio; further: potency means the concentration at half of the fitted maximal effect;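 further: reporter cells co-stimulated with 50 nM rosiglitazone agonist during compound treatment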; on activity, negative = inhibition: % of control where 0% means no effect); conditions: HEK293 PPARg-UAS-bla, beta-lactamase ratio, antagonist mode; activity, negative = inhibition: at 76.8 µM (top of the series)
# Method in brief: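 We seeded GeneBLAzer HEK293 reporter cells at 3000 per well, allowed 6-6.5 h attachment at 37 C, then co-treated with test compound titrations and 50 nM rosiglitazone overnight (16 h). Inhibition was quantified from 460/530 nm emission ratios.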
# [17] = activation: at 96 µM (top of the series) unless noted
# [18] = activity, negative = inhibition: at 76.9 µM (top of the series) unless noted
# Tags describe the fitted curve by direction and shape or compound fluorescence and quenching.
# Sequence of UniProt P10275 (P10275 whole entry, looked up): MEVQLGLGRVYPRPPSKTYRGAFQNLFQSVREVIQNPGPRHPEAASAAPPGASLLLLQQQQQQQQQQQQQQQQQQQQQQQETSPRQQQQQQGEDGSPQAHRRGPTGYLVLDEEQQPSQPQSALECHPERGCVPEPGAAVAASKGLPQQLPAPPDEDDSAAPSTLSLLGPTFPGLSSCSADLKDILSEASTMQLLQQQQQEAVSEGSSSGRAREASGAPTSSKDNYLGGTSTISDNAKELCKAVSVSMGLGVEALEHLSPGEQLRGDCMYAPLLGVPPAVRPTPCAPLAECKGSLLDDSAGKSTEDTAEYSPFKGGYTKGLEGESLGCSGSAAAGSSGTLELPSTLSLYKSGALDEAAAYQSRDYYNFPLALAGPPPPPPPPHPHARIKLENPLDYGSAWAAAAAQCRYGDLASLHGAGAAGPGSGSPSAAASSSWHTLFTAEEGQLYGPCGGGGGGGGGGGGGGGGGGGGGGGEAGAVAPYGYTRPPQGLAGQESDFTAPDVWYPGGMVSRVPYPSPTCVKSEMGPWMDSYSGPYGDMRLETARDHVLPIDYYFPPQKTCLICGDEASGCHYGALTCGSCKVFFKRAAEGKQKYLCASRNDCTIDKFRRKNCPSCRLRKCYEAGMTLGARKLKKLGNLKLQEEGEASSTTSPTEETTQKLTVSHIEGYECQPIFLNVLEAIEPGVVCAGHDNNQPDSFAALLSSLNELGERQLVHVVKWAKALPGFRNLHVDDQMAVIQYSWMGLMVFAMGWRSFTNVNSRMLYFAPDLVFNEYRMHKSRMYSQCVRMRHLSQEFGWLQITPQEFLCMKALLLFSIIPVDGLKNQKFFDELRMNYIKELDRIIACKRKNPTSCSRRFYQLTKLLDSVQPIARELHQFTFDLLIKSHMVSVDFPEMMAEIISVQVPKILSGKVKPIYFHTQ
# Sequence of UniProt P03372 (P03372 whole entry, looked up): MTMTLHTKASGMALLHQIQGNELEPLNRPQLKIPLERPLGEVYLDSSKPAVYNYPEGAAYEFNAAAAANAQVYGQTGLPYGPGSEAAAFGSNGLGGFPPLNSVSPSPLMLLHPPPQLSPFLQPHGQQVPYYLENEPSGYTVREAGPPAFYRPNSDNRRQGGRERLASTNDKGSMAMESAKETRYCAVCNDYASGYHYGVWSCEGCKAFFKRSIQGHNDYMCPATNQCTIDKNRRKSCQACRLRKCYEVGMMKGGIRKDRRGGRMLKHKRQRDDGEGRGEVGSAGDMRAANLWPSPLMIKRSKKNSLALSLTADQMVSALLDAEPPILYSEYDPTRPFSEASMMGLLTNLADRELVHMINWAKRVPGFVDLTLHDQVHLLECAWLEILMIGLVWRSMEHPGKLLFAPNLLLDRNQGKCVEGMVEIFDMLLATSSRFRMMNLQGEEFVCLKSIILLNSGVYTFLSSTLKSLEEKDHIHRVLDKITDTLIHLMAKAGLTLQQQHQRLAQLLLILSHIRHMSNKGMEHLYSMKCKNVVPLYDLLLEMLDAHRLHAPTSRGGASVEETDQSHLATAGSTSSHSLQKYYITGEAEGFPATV
# Sequence of UniProt P10828 (P10828 whole entry, looked up): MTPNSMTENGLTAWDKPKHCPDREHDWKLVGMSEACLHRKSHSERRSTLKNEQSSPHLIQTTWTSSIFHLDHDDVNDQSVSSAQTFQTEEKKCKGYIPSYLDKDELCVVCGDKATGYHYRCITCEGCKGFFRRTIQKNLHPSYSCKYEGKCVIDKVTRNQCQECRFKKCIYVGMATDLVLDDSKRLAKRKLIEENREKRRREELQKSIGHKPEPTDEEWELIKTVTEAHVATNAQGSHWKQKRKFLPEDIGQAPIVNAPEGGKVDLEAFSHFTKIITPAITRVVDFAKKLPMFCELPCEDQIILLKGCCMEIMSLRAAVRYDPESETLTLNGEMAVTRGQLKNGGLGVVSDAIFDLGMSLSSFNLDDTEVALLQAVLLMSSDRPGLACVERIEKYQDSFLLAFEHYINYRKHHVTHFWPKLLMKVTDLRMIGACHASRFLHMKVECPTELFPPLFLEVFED
# Sequence of UniProt P51449 (P51449 whole entry, looked up): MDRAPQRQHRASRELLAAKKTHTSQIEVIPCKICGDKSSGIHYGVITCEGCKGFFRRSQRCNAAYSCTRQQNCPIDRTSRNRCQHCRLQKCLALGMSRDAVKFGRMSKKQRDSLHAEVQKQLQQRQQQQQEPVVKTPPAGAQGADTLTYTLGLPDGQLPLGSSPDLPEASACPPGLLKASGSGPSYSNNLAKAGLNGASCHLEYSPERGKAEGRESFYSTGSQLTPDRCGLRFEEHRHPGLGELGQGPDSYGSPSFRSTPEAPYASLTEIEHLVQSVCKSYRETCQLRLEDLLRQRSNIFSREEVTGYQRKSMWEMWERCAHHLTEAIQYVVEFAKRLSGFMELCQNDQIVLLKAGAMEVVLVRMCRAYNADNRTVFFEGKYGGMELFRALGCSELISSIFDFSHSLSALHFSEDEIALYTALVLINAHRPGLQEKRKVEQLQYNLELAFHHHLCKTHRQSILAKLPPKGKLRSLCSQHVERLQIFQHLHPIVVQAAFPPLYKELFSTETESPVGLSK
# Sequence of UniProt P19793 (P19793 whole entry, looked up): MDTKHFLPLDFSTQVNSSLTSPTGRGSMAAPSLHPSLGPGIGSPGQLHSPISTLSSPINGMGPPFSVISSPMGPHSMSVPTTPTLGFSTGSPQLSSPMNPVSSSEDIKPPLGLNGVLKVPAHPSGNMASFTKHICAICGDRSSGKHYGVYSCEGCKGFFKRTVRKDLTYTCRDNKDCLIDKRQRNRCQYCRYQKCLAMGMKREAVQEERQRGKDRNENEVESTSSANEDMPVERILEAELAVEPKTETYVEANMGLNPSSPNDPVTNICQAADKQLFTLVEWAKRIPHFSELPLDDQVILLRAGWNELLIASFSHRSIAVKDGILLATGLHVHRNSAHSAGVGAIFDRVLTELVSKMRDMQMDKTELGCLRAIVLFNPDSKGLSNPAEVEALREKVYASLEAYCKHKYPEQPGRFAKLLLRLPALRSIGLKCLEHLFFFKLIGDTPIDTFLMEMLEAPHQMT
structure (smiles),measurement,setting,value
CCC(Cl)[N+](=O)[O-] (centres undefined),"activity change, negative = cytotoxicity",[1],inactive: -0.26%
same,Potency,[2],"inconclusive: 0.631 µM [cytotoxic, full curve, poor fit]"
same,"activity change, negative = inhibition",[3],inconclusive: 36.3%
same,Potency,[4],inactive
same,activity change % (negative = inhibition),[5],inactive: -30.2%
same,Potency,[6]; [17],"inconclusive: 75 µM [activator, single point]"
same,Potency,[7],inactive
same,Potency,[8],inactive
COc1cc(OC)nc(NC(=O)NS(=O)(=O)c2cc(NC=O)ccc2C(=O)N(C)C)n1,Potency,[9]; [18],"inconclusive: 0.0079 µM [inhibitor, full curve]"
same,Potency,[10],"inconclusive: 15.8 µM [side channel, rising, single point]"
same,activation,[11],inactive: 1.85%
same,activity change % (negative = inhibition),[5],inactive: -8.65%
O=CNC(N1CCN(C(NC=O)C(Cl)(Cl)Cl)CC1)C(Cl)(Cl)Cl (centres undefined),"activity, negative = inhibition",[9]; [18],inconclusive: 7.64%
same,activation,[10],inconclusive: 55.2%
same,activation,[11],inactive: 14.6%
same,"activity change, negative = inhibition",[12],inconclusive: -62.7%
same,Potency,[13],inactive
same,max response,[14],inconclusive: -53.1%
same,activity change % (negative = inhibition),[5],inactive: -18.1%
same,Potency,[6]; [17],"inconclusive: 30.6 µM [activator, partial curve]"
COP(N)(=O)SC (centres undefined),"activity, negative = inhibition",[9]; [18],inconclusive: 21.2%
same,"activity, negative = inhibition",[9]; at 2.03 mM (top of the series),inactive: -59.9%
same,Potency,[15],"inconclusive: 251 µM [side channel, falling, full curve, poor fit]"
same,Potency,[3],inactive
same,Potency,[16],"inconclusive: 316 µM [inhibitor, full curve]"
same,"activity, negative = inhibition",[16],inconclusive: 6.03%
same,Potency,[13],"inconclusive: 1.1 nM [side channel, falling, full curve, poor fit] and inconclusive: 199 nM [side channel, falling, full curve, poor fit]"
same,activation,[6]; [17],inconclusive: 14% [at 2.3 mM]
same,activation,[6]; at 96 µM (top of the series),inactive: 3.23%
